In all, about 50,000 compounds went through this assay and about 800 (1.6%) showed an effect of 50% or more. Some of the results follow.
Molecular target: Bcl-2-like protein 10 (Homo sapiens) (UniProt Q9HD36)
Assay: TR3 peptide-Bcl-B binding displacers, biochemical primary FP assay, phenotype converters (AID 1240);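 also: 0% = Bcl-B with tracer peptide and DMSO and 100% = tracer peptide lacking Bcl-B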
Details: GST-Bcl-B / FITC-TR3 peptide fluorescence polarization; stronger effect = higher value; compound at 3.75 mg/L

Chain of UniProt Q9HD36 (Q9HD36 whole entry, looked up): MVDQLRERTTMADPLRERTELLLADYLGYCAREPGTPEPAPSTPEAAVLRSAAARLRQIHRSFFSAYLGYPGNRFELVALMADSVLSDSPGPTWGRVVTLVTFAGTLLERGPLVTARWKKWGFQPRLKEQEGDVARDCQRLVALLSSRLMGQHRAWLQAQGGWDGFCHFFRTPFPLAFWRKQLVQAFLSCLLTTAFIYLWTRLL

Row | SMILES | displacement
1 | O=[N+]([O-])c1ccccc1N/N=C/c1ccccc1OCc1ccccc1 | -14%
2 | O=C1N=c2ccccc2=C1c1c(O)n(-c2ccc(Cl)c(Cl)c2)[nH]c1=O | 20.3%
3 | CCOC(=O)c1ccc(-c2ccc(/C=C3\Sc4ccccc4C3=O)o2)cc1 | -37.4%
4 | CN(C)/C=C1\N=C(c2ccccc2Cl)OC1=O | -1.7%
5 | O=C1C(Cc2ccccc2)S/C(=N/N=C/c2cccc([N+](=O)[O-])c2)N1c1ccccc1 (stereo not given) | 3.8%
6 | COc1cc(C(=O)NCCc2cccc(Cl)c2)cc(OC)c1OC | 0.1%
7 | O=C(NCCNc1ccc([N+](=O)[O-])cc1Cl)c1ccccc1Cl | 14.7%
8 | COc1cc(C(=O)Nc2cc(Cl)ccc2C)c([N+](=O)[O-])cc1OC | 11.6%
9 | Cc1cc(=O)oc2c(C)c(OCC(=O)c3ccc(Cl)cc3)ccc12 | 12.8%
10 | COc1cc(NS(=O)(=O)c2ccc3ccccc3c2)cc(OC)c1 | 10.5%
11 | CC1CC(C)CN(S(=O)(=O)c2ccc(F)cc2)C1 (stereo not given) | -9%
12 | COc1cccc(N2C(=O)/C(=C/c3cccc([N+](=O)[O-])c3)SC2=S)c1 | 34.2%
13 | O=C1NC(=S)NC(=O)C1=Cc1cc2c(cc1Cl)OCO2 | 4.9%
14 | CCCOc1cccc(C(=O)Nc2cccc(S(N)(=O)=O)c2)c1 | -2.6%
15 | O=c1c(Cl)c(Cl)cnn1Cc1ccccc1Cl | 15.9%
16 | COc1cc(OC)cc(C(=O)O/N=C(\c2ccncc2)c2ccc([N+](=O)[O-])cc2)c1 | 10.5%
17 | Cc1nc2ccccc2c(=O)n1N1C(=O)CCCC1=O | 11%
18 | O=C(c1nn2c(c1Cl)NC(c1cccs1)CC2C(F)(F)F)N1CCN(c2ccc(F)cc2)CC1 (stereo not given) | 12.3%
19 | COC(=O)c1c(NC(=O)c2ccc([N+](=O)[O-])cc2Cl)sc2c1CCCCCC2 | -6.6%
20 | C(=N\n1cnnc1)/c1ccc(OC2CSC2)cc1 | 1.1%
21 | COc1cc(CC(=O)O)c([N+](=O)[O-])cc1OC | 9.8%
22 | CCOC(=O)c1ccc(N2C(=O)c3cccc4c(C(=O)O)ccc(c34)C2=O)cc1 | 0.8%

Row | SMILES | displacement
23 | CCN(CC)c1ccc(C(=O)N2CCN(Cc3ccccc3)CC2)cc1 | -2.8%
24 | O=C(N=Nc1c(O)n(CN2CCCCCC2)c2ccccc12)c1ccncc1 | 16.8%
25 | O=C(CCNc1ccc(Br)cc1)c1ccc([N+](=O)[O-])cc1 | -16.2%
26 | CC(=O)NC1=NN(C(C)=O)C(c2ccc(OC(C)=O)cc2)S1 (stereo not given) | -3.4%
27 | CCOC(=O)C1=C(C)N=c2s/c(=C\c3ccc(N(CC)CC)o3)c(=O)n2C1c1ccc(OC)c(OC)c1 (stereo not given) | -25%
28 | C=CCNC(=O)C(=O)NCc1ccccc1 | 7.6%
29 | CCOC(=O)/C(C#N)=C/c1c(OCC)n(CC)c2ccccc12 | 5.8%
30 | CC(C)CC(=O)N1c2ccccc2NC2=C(C(=O)CC(C)(C)C2)C1c1cccs1 (stereo not given) | -8.6%
31 | O=C(O)/C=C/C(=O)Nc1ccc2c(c1)C(=O)c1ccccc1C2=O | -21%
32 | CCn1c2ccccc2c2cc(NC(=O)Cc3cccs3)ccc21 | -4.5%
33 | Cc1ccccc1N1C(=O)c2ccc(C(=O)Nc3ccc(O)cc3)cc2C1=O | -3.2%
34 | c1ccc(N(c2ccccc2)c2nc(-n3cnc4ccccc43)nc(-n3cnc4ccccc43)n2)cc1 | 10%
35 | Cc1cccc(NC(=O)CN(c2cccc(Cl)c2)S(C)(=O)=O)c1 | 3.9%
36 | CCOc1ccc(-c2cc(C(=O)N/N=C/c3ccc(C(=O)OC)cc3)[nH]n2)cc1 | -5.4%
37 | Cc1ccc(N2C(=O)C3C(c4cccc(F)c4)OC4(C(=O)c5ccccc5C4=O)C3C2=O)cc1 (stereo not given) | 11.3%
38 | COC(=O)C1=C(O)/C(=C\c2ccc(OCc3ccccc3)cc2)N=C1C | -13.4%
39 | COc1ccc(C2/C(=C(\O)c3ccc([N+](=O)[O-])cc3)C(=O)C(=O)N2CCCCCC(=O)O)c(OC)c1 (stereo not given) | 0%
40 | Cc1ccc(OCC(=O)Nc2ccc3oc(-c4cccnc4)nc3c2)cc1 | 11%
41 | Cc1cccc(OCCCCN2CCCC2)c1 | -3.5%
42 | O=C(NCCCO)C(=O)Nc1ccc(Cl)c(C(F)(F)F)c1 | 11.4%
43 | COc1ccc(OCC(O)CN2C(=O)c3ccccc3C2=O)cc1 (stereo not given) | 2.5%
44 | O=C(COc1ccc2ccccc2c1)NNC(=O)c1ccccc1Cl | -2%

Row | SMILES | displacement
45 | CC(=O)Oc1ccc(-c2cccc(C(=O)N3CCOCC3)c2)cc1 | 7.3%
46 | CC(C)(C)C(=O)NC(NC(=S)Nc1ccccc1)C(Cl)(Cl)Cl (stereo not given) | 6%
47 | CCOc1cccc(C=Nc2cccc3nsnc23)c1O | -1.6%
48 | O=S(=O)(c1ccc(F)cc1)N1CCC(Cc2ccccc2)CC1 | -14.7%
49 | CCOC(=O)C1=C(C)N(c2ccc(OCC)cc2)C(=O)/C1=C\c1ccco1 | -87.8%
50 | CCOC(=O)c1cnn2c(C)cc(C)nc12 | -4%
51 | CCCC(=O)Nc1cccc(NC(=O)c2cc([N+](=O)[O-])ccc2Cl)c1 | -1.1%
52 | O=C1CC(c2ccccc2)CC(O)=C1C=Nc1ccc(F)cc1 (stereo not given) | -1.2%
53 | COc1ccc(CN2CCN(C(=O)c3cccc(Cl)c3)CC2)cc1 | -5.7%
54 | CC1(C)Cc2ccccc2C(Nn2cnnc2)=N1 | 4.8%
55 | COc1ccc(N2C(=O)/C(=C\C(Br)=C\c3ccccc3)SC2=S)cc1 | 5.6%
56 | CC1=C(C(=O)OCCc2ccccc2)C(c2ccccc2F)CC(=O)N1 (stereo not given) | -9.7%
57 | Cc1ccc(N2C(=O)c3ccccc3C2=O)cc1[N+](=O)[O-] | 2.6%
58 | CSc1ccccc1NC(=O)CC1Nc2cc(C)c(C)cc2NC1=O (stereo not given) | -41.6%
59 | C=CCc1ccccc1OCCOc1ccc(Cl)cc1/C=C1/SC(=S)N(C)C1=O | 6%
60 | N#Cc1c(-c2ccc(F)cc2)c(C#N)c2nc3ccccc3n2c1N | -8%
61 | COC(=O)c1c(-c2ccc(OC)cc2OC)csc1N | 3.5%
62 | O=C1OC(c2ccc(Cl)cc2)=C/C1=C\c1ccc(F)cc1 | -12.7%
63 | COc1ccc(CCNc2nc3c(c(=O)n(C)c(=O)n3C)n2C)cc1OC | -3%
64 | COC(=O)c1ccc(Cl)c(NC(=O)C23CC4CC(C)(CC(C)(C4)C2)C3)c1 | 0.2%
65 | CC(C)(C)C(=O)COc1ccc2c(-c3ccccc3)cc(=O)oc2c1 | 9.8%
66 | CN(C)/C=C/C=C1\CC(=O)N(c2ccccc2)C1=O | 5.5%

Row | SMILES | displacement
67 | CC(=O)c1ccc(NC(=O)CSc2nnc(NC(=O)CN3CCOCC3)s2)cc1 | -28%
68 | CCC(=O)Nc1ccc2nn(-c3ccc(Cl)cc3)nc2c1 | -5.1%
69 | Cc1cc(=O)[nH]nc1-c1ccc(Cl)c([N+](=O)[O-])c1 | -6%
70 | Cc1cc2c(cc1C)NC(c1cccc(C(F)(F)F)c1)C1=C(CC(C)(C)CC1=O)N2 (stereo not given) | -15%
71 | O=C(/C=C/c1ccc(OCc2ccccc2)cc1)c1ccc2c(c1)OCCO2 | 16.8%
72 | Cc1cccc(OCC(=O)Nc2cc3c(C)cc(=O)oc3cc2C)c1 | 5%
73 | COC(=O)c1ccc(/C=C2\SC(=S)N(C(Cc3ccccc3)C(=O)O)C2=O)cc1 (stereo not given) | 6.6%
74 | CC1=Nc2ccccc2/C1=C/c1c(O)n(-c2ccc(Cl)cc2)c(=O)[nH]c1=O | -7.4%
75 | COc1ccc(C(=O)N2CCN(Cc3cccc(Cl)c3)CC2)cc1 | 6.3%
76 | Cc1cc(NC(=O)c2cccnc2)ccc1Br | 5.6%
77 | COc1cc(C=O)ccc1OCc1c(C)no[n+]1[O-] | -4.6%
78 | Nc1nonc1C(=O)N/N=C/c1cc(Cl)cc(Cl)c1O | 9%
79 | CC(C)Oc1ccc(Cc2n[nH]c(=S)n2-c2ccccc2)cc1 | -0.4%
80 | COc1ccc(CCNC(=O)C2CC2(c2cccc(C)c2)c2cccc(C)c2)cc1OC (stereo not given) | -5.8%
81 | O=C(Nc1ccc(Oc2ccccc2)cc1)c1ccc([N+](=O)[O-])cc1 | 1.2%
82 | O=C(NC(=S)Nc1ccc(N2CCOCC2)c(Cl)c1)c1ccco1 | 10.7%
83 | COCCNC(=O)COc1ccc(Cl)cc1 | 8.9%
84 | C=CCNC(=O)CSc1nc2sc3c(c2c(=O)[nH]1)CCCC3 | -55.1%
85 | O=C(NCc1ccco1)Nc1ccc(Br)cc1 | -6.8%
86 | C=CCc1ccccc1OCCSc1nc2ccc(N)cc2s1 | -10.9%
87 | CN(C1=NC(=O)SC1)c1ccc(O)cc1 | 16.3%
88 | Brc1ccc(/C=N/c2nc3c(s2)CCCC3)cc1 | 6.5%

Row | SMILES | displacement
89 | COc1ccccc1NC(=O)c1cc2c(ccc3ccccc32)oc1=O | -0.9%
90 | O=C(COc1ccc(Br)cc1)Nc1ccccc1CO | -1%
91 | CSc1ccc(S(=O)(=O)N(CC(=O)N2CCC(C)CC2)c2ccc(C)cc2)cc1 | -3%
92 | COc1cc(C(=O)N2CCN(C(=O)COc3ccc(Cl)cc3)CC2)cc(OC)c1OC | -12.7%
93 | Oc1ccc(Nc2nc(-c3ccc(Br)cc3)cs2)cc1 | 7.3%
94 | COc1ccccc1N/N=C(/C#N)C(=N)N1CCCCC1 | 4.4%
95 | CC1CC/C(=C\C=C\N(C)C)C(=O)/C1=C/C=C/N(C)C (stereo not given) | 22.9%
96 | COc1cc2c(cc1NC(=O)COc1ccc(Cl)cc1C)oc1ccccc12 | -11.5%
97 | O=C1CSC2=NCN(c3cccc(Cl)c3)CN12 | -4.6%
98 | CCOc1ccc(N(CC(=O)NC2CCCCC2)S(=O)(=O)c2ccc(Cl)cc2)cc1 | -1%
99 | N#Cc1conc1-c1ccc2c(c1)OCO2 | 27%
100 | COc1ccc(/C=C2/C(=O)NN(c3ccccc3)C2=O)cc1Br | 16.4%
101 | O=C1CC(c2ccc3c(c2)OCO3)c2ccc3ccccc3c2N1 (stereo not given) | -0.1%
102 | CCCCNC(=O)c1nn2c(c1Cl)NC(c1ccccc1)CC2C(F)(F)F (stereo not given) | 11.9%
103 | Cc1cc(C)cc(N2C(=O)NC(=O)/C(=C\c3ccc(Br)s3)C2=O)c1 | -0.2%
104 | O=c1c2ccccc2nc2n1CCS2 | 0.4%
105 | COc1ccc(-n2c(=S)[nH]c3sc4c(c3c2=O)CC(C)(C)SC4)cc1 | -29.3%
106 | NC1=NC(=O)/C(=C/c2ccc(-c3cc([N+](=O)[O-])ccc3Cl)o2)S1 | 5%
107 | COc1ccc(OC)c(NC(=O)CCC2CCCCC2)c1 | -4.4%
108 | CC1=C(C(=O)OC2CCCC2C)C(c2ccccc2Cl)NC(=O)N1 (stereo not given) | 1.8%
109 | Cc1n[nH]c(C)c1Sc1ccccc1N=Cc1cc(Cl)cc([N+](=O)[O-])c1O | 117%
110 | O=C(Cc1ccccc1)Nc1ccccc1C(=O)N1CCCCCC1 | 2.9%

Source: PubChem BioAssay AID1240 (Sanford-Burnham Center for Chemical Genomics, 2008)
